Results are given in words; binding and its absence hold for the method and conditions named. Some results given as binding are weak or reduced against the parent protein; the word gives no strength. For some of these results: Tags and fused reporters may be left off the sequences shown. One block for each binder: values may come before it.
Legend:
[1] = target: T1, Acyl-coenzyme A binding domain containing protein 3 (ACBD3), full length, untagged (human), Q9H3P7; test: AUC; sedimentation velocity, full-length proteins alone and as complex, 5 μM (both proteins); 10 mM Tris pH 8, 200 mM NaCl, 3 mM β-mercaptoethanol, 20 °C, 48000 rpm; c(s) model; both purified; conditions: remark: other sources report otherwise
T1 chain: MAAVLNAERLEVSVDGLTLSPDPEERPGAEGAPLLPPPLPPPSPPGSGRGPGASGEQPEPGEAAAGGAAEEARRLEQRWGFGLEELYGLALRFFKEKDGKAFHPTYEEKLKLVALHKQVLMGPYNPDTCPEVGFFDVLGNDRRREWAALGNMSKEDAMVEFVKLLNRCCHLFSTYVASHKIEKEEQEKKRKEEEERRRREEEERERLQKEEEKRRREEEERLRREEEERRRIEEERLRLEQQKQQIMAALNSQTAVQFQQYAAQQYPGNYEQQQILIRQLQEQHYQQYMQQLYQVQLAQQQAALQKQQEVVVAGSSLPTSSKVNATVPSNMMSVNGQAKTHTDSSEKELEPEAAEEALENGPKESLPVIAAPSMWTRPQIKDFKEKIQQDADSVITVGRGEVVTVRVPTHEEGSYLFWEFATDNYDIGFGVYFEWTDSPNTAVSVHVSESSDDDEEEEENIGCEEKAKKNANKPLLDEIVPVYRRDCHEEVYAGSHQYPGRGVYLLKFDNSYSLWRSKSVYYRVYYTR

[2] = target: PI4KB N-terminal region (residues 1-68) (human) (UniProt Q9UBF8); test: AUC; sedimentation velocity, ACBD3 Q domain and PI4KB N-terminal region, 35 μM (both proteins); 10 mM Tris pH 8, 200 mM NaCl, 3 mM β-mercaptoethanol, 20 °C, 48000 rpm; c(s) model; both purified
[3] = target: ACBD3 Q domain (residues 241-308) (human) (UniProt Q9H3P7); test: as above
[4] = target: ACBD3 Q domain (residues 241-308) (human) (UniProt Q9H3P7); test: NMR structure; solution structure of the co-expressed 15N/13C labelled complex, 470 μM, 25 mM sodium phosphate pH 6.5, 100 mM NaCl, 1 mM TCEP, 25 °C; both purified

binding [1]: no binding (tested: 5 μM)
B1: Acyl-coenzyme A binding domain containing protein 3 (ACBD3), full length, untagged, Q9H3P7 1-528 (protein)
chain: T1 chain

binding [2]: no binding (tested: 35 μM)
binding [3]: binds
binding [4]: binds
B2: PI4KB N-terminal region (residues 1-68) (domain or fragment, UniProt Q9UBF8 1-68)
chain: MGDTVVEPAPLKPTSEPTSGPPGNNGGSLLSVITEGVGELSVIDPEVAQKACQEVLEKVKLLHGGVAV

Reference: article PMC4806292
